# In the supplement of paper PMC6609913:
# Structures can show the parent of a compound that is named as a salt. ± gives the standard deviation of the averaged measurements. Over roughly 1,300 compounds, “normalised cell viability” has its median near 1; the lowest 2% begin near 0.15. This is one part of the list.
# System: V-C8 + BRCA2 (BRCA2-proficient hamster cells)
# Assay: normalised cell viability (fraction of plate median); higher = more viable cells (less toxic)
# Details: 5 µM
# In short: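 Library drugs, held as 10 mM stocks in DMSO, were diluted to 5 μM in 100 μl medium and added to 96-well plates of V-C8 hamster cells, either lacking BRCA2 or with BRCA2 restored, 24 h after seeding. Plates ran for 3 days (screen 1) or 6 days (screen 2), alongside solvent-only wells. Viability came from a resazurin readout, median-plate normalised, as the mean of triplicate wells.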
SMILES,normalised cell viability (treatment time: 3 days),normalised cell viability (treatment time: 6 days)
CCCC(=O)Nc1ncnc2c1ncn2[C@@H]1O[C@@H]2COP(=O)(O)O[C@H]2[C@H]1OC(=O)CCC [Bucladesine sodium salt],1 ± 0.021,1.04 ± 0.019
CN(C)CCC[C@@]1(c2ccc(F)cc2)OCc2cc(C#N)ccc21 [Escitalopram],1.1 ± 0.041,1.01 ± 0.067
CN1CCCC(n2nc(Cc3ccc(Cl)cc3)c3ccccc3c2=O)CC1 (stereo unspecified) [Azelastine HCl],0.946 ± 0.029,1.02 ± 0.051
CN1CCCCC1CCN1c2ccccc2Sc2ccc([S+](C)[O-])cc21 (stereo unspecified) [Mesoridazine besylate],1.028 ± 0.0076,1.08 ± 0.046
NC(=O)N/N=C/c1ccc([N+](=O)[O-])o1 [Nitrofural],0.873 ± 0.01,0.862 ± 0.033
CC(=O)Oc1cccc2c1C(=O)c1c(OC(C)=O)cc(C(=O)O)cc1C2=O [Diacerein],0.749 ± 0.038,0.796 ± 0.027
C=C1C[C@H]2[C@@H]3C=C(C)C4=CC(=O)CC[C@]4(C)[C@H]3CC[C@]2(C)[C@@]1(OC(C)=O)C(C)=O [Melengestrol acetate],1.04 ± 0.043,1.03 ± 0.054
OC[C@H]1O[C@@H](Oc2ccc(O)cc2)[C@H](O)[C@@H](O)[C@@H]1O [Arbutin],1.02 ± 0.05,0.979 ± 0.024
Nc1ccc(S(=O)(=O)c2ccc(N)cc2)cc1 [Dapsone],1.11 ± 0.035,1.098 ± 0.0059
CN(C)CCc1c[nH]c2ccc(Cn3cncn3)cc12 [Rizatriptan benzoate],0.999 ± 0.043,1.04 ± 0.05
OCCN1CCN(CCCN2c3ccccc3Sc3ccc(Cl)cc32)CC1 [Perphenazine],1.03 ± 0.028,0.655 ± 0.39
CC1(C)OC(=O)NC1=O [Dimethadione],1.08 ± 0.064,0.964 ± 0.043
N=C(N)NCC1COC2(CCCCC2)O1 (stereo unspecified) [Guanadrel sulfate],1.06 ± 0.038,1.03 ± 0.041
CCC[C@H](N[C@@H](C)C(=O)N1[C@H](C(=O)O)C[C@@H]2CCCC[C@@H]21)C(=O)OCC [Perindopril],1.02 ± 0.021,1.05 ± 0.1
Cn1nnnc1SCC1=C(C(=O)O)N2C(=O)[C@@H](NC(=O)[C@H](O)c3ccccc3)[C@H]2SC1 [Cefamandole sodium salt],1.07 ± 0.029,1.06 ± 0.1
COc1ccc(NS(=O)(=O)c2ccc(N)cc2)nn1 [Sulfamethoxypyridazine],0.879 ± 0.062,0.892 ± 0.069
Nc1ccc(C(=O)NCC(=O)O)cc1 [Aminohippuric acid],1.04 ± 0.027,1.11 ± 0.076
CCN(CC)CCNC(=O)c1cc(S(C)(=O)=O)ccc1OC [Tiapride hydrochloride],1.02 ± 0.032,1.01 ± 0.045
O=C(CCCN1CC=C(n2c(=O)[nH]c3ccccc32)CC1)c1ccc(F)cc1 [Droperidol],1.05 ± 0.013,1.07 ± 0.015
C#CCN(C)Cc1ccccc1 [Pargyline hydrochloride],0.961 ± 0.019,1.01 ± 0.034
COc1ccc2cc(CCC(C)=O)ccc2c1 [Nabumetone],1.05 ± 0.12,1.02 ± 0.044
CCn1cc(C(=O)O)c(=O)c2ccc(C)nc21 [Nalidixic acid sodium salt],1.05 ± 0.021,0.999 ± 0.035
Cc1ccc(S(=O)(=O)NC(=O)NN2CC3CCCC3C2)cc1 (stereo unspecified) [Gliclazide],1.04 ± 0.059,1.05 ± 0.059

SMILES,normalised cell viability (treatment time: 3 days),normalised cell viability (treatment time: 6 days)
CC(=O)N[C@@H](CC(=O)N[C@@H](CCC(=O)O)C(=O)O)C(=O)O [Spaglumic acid],1.06 ± 0.04,1.1 ± 0.091
CCn1cc(C(=O)O)c(=O)c2cnc(N3CCNCC3)nc21 [Pipemidic acid],0.998 ± 0.024,1.12 ± 0.07
COc1cc2nc(N3CCN(C(=O)c4ccco4)CC3)nc(N)c2cc1OC [Prazosin hydrochloride],1.03 ± 0.011,0.883 ± 0.022
COc1nc(C)nc(Cl)c1NC1=NCCN1 [Moxonidine],1.014 ± 0.0037,0.9963 ± 0.0028
Cc1ccc(C(=O)c2cc(O)c(O)c([N+](=O)[O-])c2)cc1 [Tolcapone],0.954 ± 0.035,1.06 ± 0.028
NC[C@H]1O[C@H](O[C@H]2[C@H](O[C@@H]3O[C@H](CO)[C@@H](O)[C@H]3O)[C@@H](O)[C@H](N)C[C@@H]2N)[C@H](N)[C@@H](O)[C@@H]1O [Ribostamycin sulfate salt],1.05 ± 0.03,1.02 ± 0.097
COc1ccc2[nH]cc(CCNC(C)=O)c2c1 [Melatonin],1.22 ± 0.097,0.928 ± 0.048
COc1ccc(C(=O)NCc2cccnc2)cc1C(=O)NCc1cccnc1 [Picotamide monohydrate],1.12 ± 0.059,1.13 ± 0.067
O=C(NCCNCC(O)COc1ccc(O)cc1)N1CCOCC1 (stereo unspecified) [Xamoterol hemifumarate],1.02 ± 0.044,1.25 ± 0.17
CCN(Cc1ccncc1)C(=O)C(CO)c1ccccc1 (stereo unspecified) [Tropicamide],1.065 ± 0.0083,1.01 ± 0.043
CN(C)CCOC1=Cc2ccccc2Sc2ccc(Cl)cc21 [Zotepine],0.591 ± 0.05,0.679 ± 0.027
OC(CCN1CCCCC1)(c1ccccc1)C1CC2C=CC1C2 (stereo unspecified) [Biperiden hydrochloride],0.993 ± 0.031,1.01 ± 0.062
CCN(CC)CC#CCOC(=O)C(O)(c1ccccc1)C1CCCCC1 (stereo unspecified) [Oxybutynin chloride],1.07 ± 0.047,1.02 ± 0.031
Cc1ncc([N+](=O)[O-])n1CCO [Metronidazole],0.893 ± 0.04,1.02 ± 0.032
CN1C2CCCC1CC(NC(=O)c1nn(C)c3ccccc13)C2 (stereo unspecified) [Granisetron],1.03 ± 0.036,1.01 ± 0.017
CC(C)N1CCN(c2ccc(OCC3COC(Cn4cncn4)(c4ccc(Cl)cc4Cl)O3)cc2)CC1 (stereo unspecified) [Terconazole],1.26 ± 0.035,1.3 ± 0.11
O=C1CN2Cc3c(ccc(Cl)c3Cl)N=C2N1 [Anagrelide],1.02 ± 0.018,1.03 ± 0.049
CC(C)NCC(O)COc1ccc(COCCOC(C)C)cc1 (stereo unspecified) [Bisoprolol fumarate],0.973 ± 0.017,1.19 ± 0.03
Nc1nc(=S)c2ncn([C@@H]3O[C@H](CO)[C@@H](O)[C@H]3O)c2[nH]1 [Thioguanosine],0.452 ± 0.015,0.404 ± 0.0073
CC(=O)N[C@@H](CC(C)C)C(=O)O [N-Acetyl-L-leucine],1.04 ± 0.015,1.11 ± 0.046
Nc1nc(=O)c2nc(CNc3ccc(C(=O)N[C@@H](CCC(=O)O)C(=O)O)cc3)cnc2[nH]1 [Folic acid],1 ± 0.021,1.03 ± 0.1
Nc1nc(F)nc2c1ncn2[C@@H]1O[C@H](CO)[C@@H](O)[C@@H]1O [Fludarabine],1 ± 0.071,1.03 ± 0.1
CC[C@H]1OC(=O)[C@H](C)[C@@H](O[C@H]2C[C@@](C)(OC)[C@@H](O)[C@H](C)O2)[C@H](C)[C@@H](O[C@@H]2O[C@H](C)C[C@H](N(C)C)[C@H]2O)[C@](C)(O)C[C@@H](C)/C(=N\OCOCCOC)[C@H](C)[C@@H](O)[C@]1(C)O [Roxithromycin],1 ± 0.025,0.979 ± 0.019

SMILES,normalised cell viability (treatment time: 3 days),normalised cell viability (treatment time: 6 days)
Clc1ccc(C(Cn2ccnc2)OCc2c(Cl)cccc2Cl)c(Cl)c1 (stereo unspecified) [Isoconazole],1.22 ± 0.042,1.18 ± 0.02
NC(=O)N1c2ccccc2C=Cc2ccccc21 [Carbamazepine],1.04 ± 0.016,0.9944 ± 0.0025
CN(C)CCN(Cc1cccs1)c1ccccn1 [Methapyrilene hydrochloride],1.12 ± 0.021,1.04 ± 0.042
COc1c(O[C@@H]2O[C@H](CO)[C@@H](O)[C@H](O)[C@H]2O)cc2c(c1OC)-c1ccc(SC)c(=O)cc1[C@@H](NC(C)=O)CC2 [Thiocolchicoside],1.01 ± 0.027,1.06 ± 0.022
O=C(Cn1ccnc1[N+](=O)[O-])NCCO [Etanidazole],1.02 ± 0.091,1.04 ± 0.035
CO[C@H]1/C=C/O[C@@]2(C)Oc3c(C)c(O)c4c(c3C2=O)C2=NC3(CCN(CC(C)C)CC3)NC2=C(NC(=O)/C(C)=C\C=C\[C@H](C)[C@H](O)[C@@H](C)[C@@H](O)[C@@H](C)[C@H](OC(C)=O)[C@@H]1C)C4=O [Rifabutin],1.01 ± 0.14,0.91 ± 0.043
Cc1scc2c1N(C(=O)CN1CCN(C)CC1)c1ccccc1NC2=O [Telenzepine dihydrochloride],0.996 ± 0.046,1.07 ± 0.066
Cn1c(=O)c2nc[nH]c2n(C)c1=O [Theophylline monohydrate],0.884 ± 0.038,1.05 ± 0.12
C=C1c2cccc(O)c2C(=O)C2=C(O)[C@]3(O)C(=O)C(C(N)=O)=C(O)[C@@H](N(C)C)[C@@H]3[C@@H](O)[C@H]12 [Methacycline hydrochloride],1.14 ± 0.27,1.08 ± 0.029
c1ccc(C2CN3CCSC3=N2)cc1 (stereo unspecified) [Tetramisole hydrochloride],1.01 ± 0.061,1.08 ± 0.021
CCOC(=O)c1ccc(OC(=O)CCCCCNC(=N)N)cc1 [Gabexate mesilate],0.943 ± 0.06,0.993 ± 0.04
CCCN[C@H]1CCc2nc(N)sc2C1 [Pramipexole],0.9625 ± 0.0076,0.987 ± 0.022
Cc1cc(=O)oc2cc(O)ccc12 [Hymecromone],1 ± 0.032,1.13 ± 0.042
COc1ccc(CN(CCN(C)C)c2ccccn2)cc1 [Pyrilamine maleate],1.02 ± 0.064,1 ± 0.082
CCCNC(C)C(=O)Nc1ccccc1C (stereo unspecified) [Prilocaine hydrochloride],1.04 ± 0.031,1.04 ± 0.025
CC(COc1ccccc1)N(CCCl)Cc1ccccc1 (stereo unspecified) [Phenoxybenzamine hydrochloride],0.991 ± 0.045,0.936 ± 0.015
CC(=O)c1ccc(S(=O)(=O)NC(=O)NC2CCCCC2)cc1 [Acetohexamide],1.22 ± 0.019,1.025 ± 0.0097
CCCCC[C@H](O)/C=C/[C@@H]1[C@@H](C/C=C\CCCC(=O)O)[C@@H](O)C[C@H]1O [Dinoprost trometamol],1.09 ± 0.087,0.975 ± 0.06
CCOC(=O)OC(C)OC(=O)[C@@H]1N2C(=O)[C@@H](NC(=O)[C@H](N)c3ccccc3)[C@H]2SC1(C)C (stereo partly specified) [Bacampicillin hydrochloride],1 ± 0.027,1.08 ± 0.096
CCOC(=O)[C@H](CCc1ccccc1)N[C@H]1CCc2ccccc2N(CC(=O)O)C1=O [Benazepril HCl],1.03 ± 0.018,1.07 ± 0.029
COC1=C(OC)C(=O)C(CCCCCCCCCCO)=C(C)C1=O [Idebenone],0.679 ± 0.047,0.699 ± 0.095
NCCCC[C@H](N[C@@H](CCc1ccccc1)C(=O)O)C(=O)N1CCC[C@H]1C(=O)O [Lisinopril],1.02 ± 0.025,1.07 ± 0.073
